# Test results published in the supplement of paper PMC10185492.
# The list shows a part of the results. These are enrichments in a pooled selection; single values are uncertain.
# Tested on: SARS-CoV-2 3CLpro (nsp5)
# Assay: substrate phage enrichment score (protease-eluted vs HEPES control, +1 offset) (ratio); higher = better cleaved substrate
# Details: selection round: 4; protease elution time: 15 min
# Experimental: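 Random heptapeptide substrate phage display (M13 pIII fusion, heptapeptide between an N-terminal biotinylated AviTag GLNDIFEAQKIEWHE and pIII; phages immobilised on streptavidin) eluted by cleavage with 50 nM protease in 20 mM HEPES at 37 °C. Selected phages were NGS sequenced, and the enrichment score is (reads in protease sample + 1)/(reads in HEPES blank-selection control + 1).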
row,Substance,substrate phage enrichment score
1,AVEEKST,> 28
2,TDTDGVR,1.5
3,SEITTLQ,218
4,AHIRTTK,0.08
5,GTAAHHH,0.99
6,EKCTKLQ,> 95
7,SPAQSPG,0.476
8,SFESLNA,0.917
9,SHTRVCP,6.75
10,NPAAHHH,0.926
11,RYLPGLQ,3.67
12,LEQPMPS,13.5
13,WYSELKV,4.5
14,SYHNPST,0.294
15,RELYFQG,0.438
16,PCASGMP,> 50
17,EHTAGTK,3.1
18,CRFAGQN,4.5
19,RNTTATR,> 22
20,EIYLHLR,8
21,VRYRLEN,0.571
22,GIAPPVR,4.4
23,RTESHAP,1.6
24,DAPNVRQ,2.2

row,Substance,substrate phage enrichment score
1,RSSPSPR,> 23
2,SSACDRK,4
3,SQKMTPP,6
4,VSHCENN,6.86
5,TQSPTYV,> 35
6,YHHHHGA,0.674
7,KRGNCSQ,1.2
8,SIRPDAG,> 31
9,SKTSCRQ,> 31
10,AVLGRAQ,9.67
11,TNASVIQ,21
12,LSNDRGQ,> 41
13,WPRPALQ,11
14,HSAAAHH,0.517
15,PQPECGT,1.13
16,RTSPTYM,5.2
17,SGETHLM,> 30
18,IQMQGNL,2.43
19,GETKLQS,> 37
20,RCPTPVS,> 37
21,QLSPNKA,6.5
22,RPTCRIQ,2.91
23,QRHSNPQ,1.7
24,PTCQGGS,> 32

row,Substance,substrate phage enrichment score
1,VLRHGQE,7.36
2,HPIGTRT,5
3,TPTALQS,> 21
4,SYRERLR,6.33
5,ASHQEIT,0.35
6,STVRSKE,> 22
7,NDHDELR,1.88
8,YESGVIE,> 34
9,YKHEPMK,> 34
10,VQDTGQP,1.4
11,PRNPDSK,0.625
12,VSVLQSS,45.5
13,LPKNMTC,0.923
14,QSFLYER,4.86
15,SGNARVP,1.54
16,SQVKLGD,2.25
17,KGTLTPP,> 24
18,RCPVAVG,0.392
19,GTAESNP,1.71
20,SNFTSGQ,1.56
21,NAAAHHH,0.714
22,CLRGPVL,11
23,SDFTLPR,0.222
24,PTLPILQ,> 31

row,Substance,substrate phage enrichment score
1,NTLTNLQ,> 83
2,SEYPARF,1.11
3,WPPLLQA,> 21
4,AVREHRQ,0.716
5,PLSHPLH,> 38
6,TTHEPTV,2.67
7,ARPMGGR,0.912
8,NASSLQS,> 87
9,DLNERDG,7.17
10,SEETEYP,0.0769
11,SRISPTK,0.714
12,VPSTRLQ,> 86
13,RKCSHIQ,6.33
14,HESTSGF,1.88
15,ANTTHDR,1.47
16,LSKRDRC,2.17
17,ANIPPSK,> 80
18,TDVPRYR,8.33
19,RCLPDTV,3.8
20,SKRGANG,4.38
21,VYRLPHR,4.42
22,SAASSRQ,> 66
23,KRTRTQC,0.917
24,DDVNWPD,1.88

row,Substance,substrate phage enrichment score
1,NHYGDGD,3.5
2,VATTRMQ,> 31
3,RHEPQTR,1.82
4,ELRLTTR,2.52
5,RNSSRTA,29
6,KCTAGEK,4
7,EVGLPQA,7.67
8,WPCALQC,> 330
9,PLSPHNQ,> 102
10,SESAQWG,0.9
11,GTPMTHF,1.17
12,PPKVRLQ,42.9
13,GAAVCLQ,30
14,WTDRVEC,6.12
15,LTHAHGK,0.13
16,YCSKSRN,5.25
17,EAAAHHH,1.12
18,SKYTNLQ,> 31
19,MKHACQT,> 21
20,SDLRMKP,> 27
21,SAAPHQH,1.54
22,SCNVTLQ,0.7
23,ARNGSPY,2.43
24,DTRCVNG,0.143

row,Substance,substrate phage enrichment score
1,VWGTVPG,> 22
2,TRPKGEK,> 48
3,RVCSLVL,> 37
4,APYGPRG,4.4
5,MTSYGKE,3.4
6,LTTGDDS,0.765
7,DPLSDPR,10
8,THPEWPW,1.31
9,SLSGNPN,> 29
10,SGQVTLQ,100
11,VSERTPH,> 143
12,VCAAAHH,0.286
13,QHHRGRC,2.67
14,PTCAFGL,2.68
15,LDNSQVI,0.222
16,WNQSDSC,15
17,KSDASRE,1.08
18,ISVTPQQ,> 22
19,SGCSWAQ,3
20,LKLPLLQ,> 23
21,DASGRAP,> 70
22,PMSHGLM,1.36
23,STTVQMQ,> 58
24,RLRGPGT,1.2

row,Substance,substrate phage enrichment score
1,SRLQSYQ,> 136
2,HAKHMTE,4.75
3,QEALTCV,0.722
4,SRSQRTR,> 55
5,DAALSTG,1.78
6,KAMRGHS,> 21
7,ETSPKQT,2.89
8,VRREEQL,1.88
9,SGHTSRD,3.4
10,TSMNGQR,1.64
11,RENLNPT,> 67
12,QKNPRLQ,> 22
13,SRPAELQ,28.3
14,HDSWRPI,3.6
15,EVEPCLQ,> 30
16,SAAAHRH,0.621
17,FGNALLQ,> 40
18,PTERCKS,3.29
19,FSQAKES,> 22
20,MQDPSVA,1.75
21,SHVNEDG,0.682
22,HAAAHHH,0.742
23,GLYFQGG,3.05
24,TTMQSST,6.33

row,Substance,substrate phage enrichment score
1,LPRCSLC,6.75
2,DHSSHKA,6.89
3,KRPLNPA,> 42
4,TTPMSNR,1.5
5,VTKSEAQ,> 104
6,DQQRANY,1.33
7,AAAHHHN,1.59
8,TEYKVNC,29
9,TCVTLQS,> 51
10,VYFQGGS,1.57
11,CYCPNWE,0.571
12,NTKRRPP,> 43
13,CVNGTVR,> 21
14,CDRESPG,2.75
15,PCTLRAR,> 21
16,STYPVTG,> 42
17,CSCTHTK,0.939
18,ASHKSSL,25
19,GTTAAHH,2.88
20,SKTSTLQ,> 24
21,RCLLPRN,> 53
22,PGVASLQ,> 31
23,LDAQKKT,1.31
24,INATDRR,0.0833

row,Substance,substrate phage enrichment score
1,PEQIESY,> 42
2,TNQRPEW,0.0435
3,DFQGGSA,0.84
4,CERRQGD,1.88
5,NSSRPHR,0.1
6,RSSPSME,1.18
7,INHGNKQ,> 22
8,LHRVSNP,0.7
9,EPCVLHG,10.5
10,LNNNPGR,0.341
11,ITPQENA,> 39
12,RQNKLKP,> 21
13,IHQPNWR,3.44
14,RFCESVV,3.36
15,SAAAYHH,1.23
16,EYLMGPS,0.963
17,QPAGSAA,> 56
18,VPRSRIG,41
19,RQPSCLH,> 21
20,LPTNLHR,> 28
21,CFRSGYG,> 21
22,VITRPQG,1
23,KPYFQGG,0.6
24,SADRECE,3.83

row,Substance,substrate phage enrichment score
1,SPHQEEQ,2.71
2,HGSTHAV,1.67
3,SQKNRGC,> 38
4,LRCIVLR,> 25
5,EAVSSMD,> 21
6,CVLLQSH,> 180
7,HNPPLTN,0.211
8,RKGPMLQ,> 38
9,SGPGVMA,0.611
10,WRPIGKQ,41.7
11,QELLLHS,> 27
12,TQAAHHH,2.32
13,QHFQGGS,0.958
14,LRMHGLT,2.57
15,EPSRNRT,> 155
16,GGMTPVC,7.4
17,HGQHSNR,0.667
18,TEQEFFQ,2.07
